Test results as given in PubChem BioAssay (Tox21).
“And” between values parts separate entries of the source, which are not always exact repeats. Identical values can stand only once. Inconclusive results, whose numbers are uncertain, are shown with a selection of clear calls. For some assays here: Potencies beside an inconclusive call are fits to weak or partial responses and may not hold up. More than one record can exist for a structure, and the calls need not agree. The source made the active and inactive calls. Unless noted, calls come from the whole dose curve; as a rule, active = well fitted curve in the direction sought with a large enough effect in the repeat runs; inconclusive = weak or mixed curves; inactive = no such curve, though single readings can be large; an effect the other way counts as inactive or inconclusive.

Key:
[1] = qHTS assay to identify small molecule antagonists of the peroxisome proliferator-activated receptor gamma (PPARg) signaling pathway - cell viability counter screen (AID 743194); conditions: PPARg-bla HEK293H viability, CellTiter-Glo luminescence, 17 h; Potency: co-treated with 50 nM rosiglitazone unless noted; activity change, negative = cytotoxicity: at 62.6 µM (top of the series), co-treated with 50 nM rosiglitazone unless noted; note: potency is the fitted concentration of half-maximal effect; nearly all actives have a fitted effect of over 55% in size
Procedure, shortened: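 PPARg-UAS-bla HEK293H cells were plated, rested 5 h at 37 C, then treated with compounds plus rosiglitazone (50 nM final) for 17 h at 37 C; viability was then read by CellTiter-Glo luminescence after 30 min at room temperature.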

[2] = qHTS assay for small molecule agonists of the antioxidant response element (ARE) signaling pathway - cell viability counter screen (AID 743203; calls by dose curve; note: nearly all actives have a fitted effect of over 55% in size; note: potency is the fitted concentration of half-maximal effect; for viability change, negative = cytotoxic: % is set by controls: 0 for no effect and ±100 for the full control effect); conditions: ARE-bla HepG2 viability, CellTiter-Glo luminescence, 16 h; viability change, negative = cytotoxic: at 73.3 µM (top of the series)
Procedure, shortened: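 Measured in the same wells as the beta-lactamase ARE reporter, this read-out is CellTiter-Glo luminescence from HepG2 ARE-bla cells given compounds for 16 hrs.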

[3] = qHTS assay for small molecule activators of the heat shock response signaling pathway - cell viability counter screen (AID 743209); conditions: HSE-bla HeLa viability, CellTiter-Glo luminescence, 5 h; activity change, negative = cytotoxicity: at 62.6 µM (top of the series) unless noted; note: potency is the fitted concentration of half-maximal effect; nearly all actives have a fitted effect of over 50% in size
Procedure, shortened: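 Same-well multiplex: after 2.5 h room-temperature incubation with LiveBLAzer B/G substrate and fluorescence reading, CellTiter-Glo reagent was added to HSE-bla HeLa cells that had received compound for 5 h at 37 C; luminescence read after 30 min.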

[4] = qHTS assay for small molecule activators of the heat shock response signaling pathway (AID 743210; active = well fitted activation curve with a large enough effect in the signal ratio in the repeat runs, with a control signal flat, not every such curve was filed as active; inconclusive = weak or mixed curves; the % refers to the signal ratio; note: potency is the fitted concentration of half-maximal effect; for activation: % is set by controls: 0 for no effect and ±100 for the full control effect); conditions: HeLa HSE-bla reporter, beta-lactamase ratio, 5 h; activation: at 62.6 µM (top of the series) unless noted
Procedure, shortened: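 Heat shock element–beta-lactamase HeLa reporter cells; qHTS with compounds for 5 h at 37 C; detection by FRET substrate fluorescence after 2.5 h at RT.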

[5] = biological target: Peroxisome proliferator-activated receptor delta (Homo sapiens) (UniProt Q03181); assay: qHTS assay to identify small molecule agonists of the peroxisome proliferator-activated receptor delta (PPARd) signaling pathway (AID 743212; calls by dose curve;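 note: HEK293H cells with PPARd UAS beta-lactamase reporter GeneBLAzer system; % is set by controls: 0 for no effect and ±100 for the full control effect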); conditions: HEK293H PPARd-UAS-bla, beta-lactamase FRET ratio, 17 h
Procedure, shortened: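 Beta-lactamase reporter read by fluorescence (LiveBLAzer B/G FRET, 2 h, room temperature). Test agents, in DMSO, incubated at 37 C with PPARd-bla HEK293H cells.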

[6] = qHTS assay to identify small molecule antagonists of the peroxisome proliferator-activated receptor delta (PPARd) signaling pathway - cell viability counter screen (AID 743213); conditions: PPARd-bla HEK293H viability, CellTiter-Glo luminescence, 17 h; viability change, negative = cytotoxic: at 62 µM (top of the series) unless noted; note: potency is the fitted concentration of half-maximal effect; nearly all actives have a fitted effect of over 50% in size
Procedure, shortened: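 CellTiter-Glo was added to PPARd-bla HEK293H wells following 17 h compound treatment in the presence of 300 nM L165041. Luminescence was recorded after 30 min at room temperature.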

[7] = biological target: Peroxisome proliferator-activated receptor delta (Homo sapiens) (UniProt Q03181); assay: qHTS assay to identify small molecule antagonists of the peroxisome proliferator-activated receptor delta (PPARd) signaling pathway (AID 743215; active = well fitted inhibition curve with a large enough effect in the signal ratio in the repeat runs, not every such curve was filed as active; inconclusive = weak or mixed curves, or effect the other way; inactive = no such curve, though single readings can be large or run the other way; the % refers to the signal ratio;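 note: cells stimulated with agonist L165041 at 300 nM final during compound exposure; potency is the fitted concentration of half-maximal effect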); conditions: HEK293H PPARd-UAS-bla, beta-lactamase FRET ratio, antagonist, 17 h; ratio activity, negative = inhibition: at 62 µM (top of the series) unless noted
Procedure, shortened: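 Fluorescence from cleaved LiveBLAzer B/G FRET substrate (2 h, room temperature) reports PPARd-driven beta-lactamase in HEK293H UAS-bla cells. Cells had been treated 17 h at 37 C with compound plus 300 nM final L165041.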

[8] = qHTS assay to identify small molecule agonists of the peroxisome proliferator-activated receptor delta (PPARd) signaling pathway - cell viability counter screen (AID 743211); conditions: PPARd-bla HEK293H viability, CellTiter-Glo luminescence, 17 h; activity change, negative = cytotoxicity: at 62.6 µM (top of the series); note: potency is the fitted concentration of half-maximal effect; nearly all actives have a fitted effect of over 55% in size
Procedure, shortened: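 PPARd-bla HEK293H cells (3000/well) were pre-incubated 5 h at 37 C, then exposed to compound for 17 h at 37 C. After 2 h with LiveBLAzer substrate, CellTiter-Glo was added to the same wells; luminescence read after 30 min at room temperature.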
Tags give direction and shape of the fitted curve or compound fluorescence and quenching.

Chain of UniProt Q03181 (Q03181 whole entry, looked up): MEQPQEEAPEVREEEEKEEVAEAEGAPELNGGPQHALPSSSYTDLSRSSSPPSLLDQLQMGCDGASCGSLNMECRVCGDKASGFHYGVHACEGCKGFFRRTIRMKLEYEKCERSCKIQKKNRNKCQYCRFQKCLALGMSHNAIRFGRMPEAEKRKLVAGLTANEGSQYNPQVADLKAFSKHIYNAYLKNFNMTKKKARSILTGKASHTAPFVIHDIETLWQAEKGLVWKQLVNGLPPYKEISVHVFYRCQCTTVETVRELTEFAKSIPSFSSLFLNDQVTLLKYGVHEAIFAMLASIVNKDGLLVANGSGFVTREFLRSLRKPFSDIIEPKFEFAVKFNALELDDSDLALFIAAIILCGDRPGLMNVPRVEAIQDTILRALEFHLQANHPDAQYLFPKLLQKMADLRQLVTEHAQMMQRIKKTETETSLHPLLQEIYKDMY

SMILES | Potency [1] | Potency [2] | Potency [3] | Potency [4] | activation ([5]; activation: at 62.6 µM (top of the series) unless noted) | activation ([5]; at 62.6 µM (top of the series)) | Potency [6] | Potency [7] | Potency [8]
Oc1ccc(C(c2ccc(O)cc2)(C(F)(F)F)C(F)(F)F)cc1 | inconclusive: 12.2 µM [cytotoxic, partial curve, poor fit] and active: 43.6 µM | inactive and active: 43.3 µM | inconclusive: 54.9 µM [cytotoxic, single point] | inactive and inconclusive: 54.9 µM | inconclusive: -1.14% | inactive: -4.01% | inconclusive: 61.7 µM [cytotoxic, partial curve, poor fit] | inconclusive: 0.55 µM [rising, full curve, poor fit] | 
ClC1=C(Cl)[C@]2(Cl)[C@@H]3[C@@H]4C[C@@H]([C@H]5O[C@@H]45)[C@@H]3[C@@]1(Cl)C2(Cl)Cl | active: 43.6 µM |  | active: 48.9 µM |  |  |  | inconclusive: 43.3 µM [rising, partial curve] | inconclusive: 27.5 µM [fluorescent] | active: 49 µM
O=[N+]([O-])c1ccc(O)c([N+](=O)[O-])c1 | inconclusive: 0.492 µM [cytotoxic, full curve, poor fit] | inconclusive: 34.4 µM [cytotoxic, partial curve, poor fit] |  |  |  |  | inconclusive: 1.1 µM [cytotoxic, single point] and inconclusive: 43.6 µM [cytotoxic, partial curve, poor fit] |  | inconclusive: 17.4 µM [cytotoxic]
